The results in this text go back to the supplement of paper PMC10037445.

Over roughly 2,900 compounds, “IRF Lucia reporter activity, fold change vs agonist alone” has its median near 0.9; the highest 2% begin near 2.8. The list shows a part of the results.

Assay [1] relates to RAW-Dual. Briefly: IRF Lucia reporter activity, fold change vs agonist alone; higher = enhanced IRF activity. As to conditions: library stock concentration (final ~1000-fold dilution): 10 mM; cytotoxicity flag (confluency mask): not cytotoxic; agonist: MPLA (TLR4) […]. In short, it runs like this: (§1)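 Cytotoxic wells were those whose IncuCyte confluency was below 70% of agonist controls in both mask sets. The cells were RAW-Dual macrophages at 50,000 cells/well in DMEM on 384-well plates, dosed with 50 nL of library stock by pin tool, stimulated with a PRR agonist 1 h later, and kept at 37 °C, 5% CO2 for 20 hours. IRF and NF-κB reporter activity, as fold change over agonist-alone wells, came from supernatant read by QuantiLuc luminescence and QuantiBlue absorbance, respectively.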

In assay [2] the test system is RAW-Dual. Briefly: IRF Lucia reporter activity, fold change vs agonist alone; cytotoxicity flag (confluency mask): not cytotoxic; higher = enhanced IRF activity. The procedure, abridged:
as §1

For assay [3], the system named is RAW-Dual. Nature of the assay: IRF Lucia reporter activity, fold change vs agonist alone; cytotoxicity flag (confluency mask): cytotoxic (confluency <70% of control); higher = enhanced IRF activity. The procedure, abridged:
as §1

Where [4] appears, read: agonist: 3'3'-cGAMP (STING) 10 ug/mL.

Turning to `Cc1c(C(C)C2NCC(C)CC2O)ccc2c1CC1C2CC=C2CC(O)CCC21C` (centres undefined), the “IRF Lucia reporter activity” value in assay [1] came to 1.15.

Take `Cc1c(C(C)C2NCC(C)CC2O)ccc2c1CC1C2CC=C2CC(O)CCC21C` (centres undefined) (library stock concentration (final ~1000-fold dilution): 10 mM): the “IRF Lucia reporter activity” value in assay [2] (setting [4]) worked out at 0.394; in assay [2] (agonist: LPS (TLR4) 0.1 ug/mL), 1.34.

For `CS(=O)(=O)c1ccc(C(=O)C2C(=O)CCCC2=O)c(Cl)c1` (library stock concentration (final ~1000-fold dilution): 10 mM), the “IRF Lucia reporter activity” value in assay [2] (setting [4]) amounted to 0.206; in assay [2] (agonist: LPS (TLR4) 0.1 ug/mL), 0.384. As for `O=S(=O)(CC1CS1)c1ccc(Oc2ccccc2)cc1` (centres undefined) (library stock concentration (final ~1000-fold dilution): 10 mM), the “IRF Lucia reporter activity” value in assay [2] (setting [4]) worked out at 0.174; in assay [2] (agonist: LPS (TLR4) 0.1 ug/mL), 2.37. For `O=S(=O)(CC1CS1)c1ccc(Oc2ccccc2)cc1` (centres undefined), the “IRF Lucia reporter activity” value in assay [1] amounted to 2.5.

As for `COc1ccc2c(c1)[nH]c1c(C)nccc12.Cl` (library stock concentration (final ~1000-fold dilution): 10 mM), the “IRF Lucia reporter activity” value in assay [2] (setting [4]) worked out at 0.233; in assay [2] (agonist: LPS (TLR4) 0.1 ug/mL), 0.0986. `COc1ccc2c(c1)[nH]c1c(C)nccc12.Cl`: the “IRF Lucia reporter activity” value in assay [1] was 0.144. As to `C[N+]1(C)C2CC(OC(=O)C(CO)c3ccccc3)CC1C1OC12` (centres undefined), the “IRF Lucia reporter activity” value in assay [1] was determined as 0.903. Take `C[N+]1(C)C2CC(OC(=O)C(CO)c3ccccc3)CC1C1OC12` (centres undefined) (library stock concentration (final ~1000-fold dilution): 10 mM): the “IRF Lucia reporter activity” value in assay [2] (setting [4]) is 1.07; in assay [2] (agonist: LPS (TLR4) 0.1 ug/mL), 0.83. Consider `CCC12C=CCN3CCC4(C(=C(C(=O)OC)C1)Nc1ccccc14)C32.Cl` (centres undefined), for which the “IRF Lucia reporter activity” value in assay [1] is 0.567. As to `CCC12C=CCN3CCC4(C(=C(C(=O)OC)C1)Nc1ccccc14)C32.Cl` (centres undefined) (library stock concentration (final ~1000-fold dilution): 10 mM), the results for the “IRF Lucia reporter activity” value in assay [2] (setting [4]) and in assay [2] (agonist: LPS (TLR4) 0.1 ug/mL) were 0.952 and 0.735, respectively. Turning to `CC(=O)OC1CCC2(C)C(=CCC3C4CCC(=O)C4(C)CCC32)C1` (centres undefined), in assay [1], the “IRF Lucia reporter activity” value came to 1.09. Take `CC(=O)OC1CCC2(C)C(=CCC3C4CCC(=O)C4(C)CCC32)C1` (centres undefined) (library stock concentration (final ~1000-fold dilution): 10 mM): the “IRF Lucia reporter activity” value was 1.01 in assay [2] (setting [4]) and 1.9 in assay [2] (agonist: LPS (TLR4) 0.1 ug/mL). Regarding `Br.CN1C2CC(OC(=O)C(CO)c3ccccc3)CC1C(O)C2` (centres undefined) (library stock concentration (final ~1000-fold dilution): 10 mM), the “IRF Lucia reporter activity” value turned out to be 0.968 in assay [2] (setting [4]) and 0.959 in assay [2] (agonist: LPS (TLR4) 0.1 ug/mL).

Take `CN1C(=O)C23CC4(C56CC78SSC(CO)(C(=O)N7C5Nc5ccccc56)N(C)C8=O)c5ccccc5NC4N2C(=O)C1(CO)SS3` (centres undefined) (library stock concentration (final ~1000-fold dilution): 10 mM): the “IRF Lucia reporter activity” value in assay [3] (setting [4]) worked out at 0.0161; in assay [3] (agonist: LPS (TLR4) 0.1 ug/mL) it was 0.0187. With `C1CCc2nnnn2CC1`, the “IRF Lucia reporter activity” value in assay [1] was found to be 1.16. Turning to `C1CCc2nnnn2CC1` (library stock concentration (final ~1000-fold dilution): 10 mM), the “IRF Lucia reporter activity” value worked out at 1.08 in assay [2] (setting [4]) and 1.32 in assay [2] (agonist: LPS (TLR4) 0.1 ug/mL). Consider `C=CCN1CC(C(=O)N(CCCN(C)C)C(=O)NCC)CC2c3cccc4[nH]cc(c34)CC21` (centres undefined), for which the “IRF Lucia reporter activity” value in assay [1] came to 1.34. With `C=CCN1CC(C(=O)N(CCCN(C)C)C(=O)NCC)CC2c3cccc4[nH]cc(c34)CC21` (centres undefined) (library stock concentration (final ~1000-fold dilution): 10 mM), the “IRF Lucia reporter activity” value was determined as 0.906 in assay [2] (setting [4]) and 1.09 in assay [2] (agonist: LPS (TLR4) 0.1 ug/mL). For `CC[C@H]1CN2CC[C@]3(C(=O)Nc4ccccc43)[C@@H]2C[C@@H]1/C(=C\OC)C(=O)OC` (library stock concentration (final ~1000-fold dilution): 10 mM), the “IRF Lucia reporter activity” value was determined as 0.931 in assay [2] (setting [4]) and 1.09 in assay [2] (agonist: LPS (TLR4) 0.1 ug/mL). Consider `COC1=CC2C3Cc4ccc(OC)c(O)c4C2(CCN3C)CC1=O.Cl` (centres undefined) (library stock concentration (final ~1000-fold dilution): 10 mM), for which the results for the “IRF Lucia reporter activity” value in assay [2] (setting [4]) and in assay [2] (agonist: LPS (TLR4) 0.1 ug/mL) were 1.17 and 1.15, respectively. As to `COC1=CC2C3Cc4ccc(OC)c(O)c4C2(CCN3C)CC1=O.Cl` (centres undefined), the “IRF Lucia reporter activity” value in assay [1] worked out at 1.16.

In the case of `CC1=CC2Cc3[nH]c(=O)ccc3C3(C1)NCCCC23` (centres undefined) (library stock concentration (final ~1000-fold dilution): 10 mM), the “IRF Lucia reporter activity” value in assay [2] (setting [4]) is 1.05; in assay [2] (agonist: LPS (TLR4) 0.1 ug/mL) it was 1.22. With `COc1cc(C2OCC3C(c4cc(OC)c(OC5OC(CO)C(O)C(O)C5O)c(OC)c4)OCC23)cc(OC)c1OC1OC(CO)C(O)C(O)C1O` (centres undefined) (library stock concentration (final ~1000-fold dilution): 10 mM), the “IRF Lucia reporter activity” value stood at 0.893 in assay [2] (setting [4]) and 0.998 in assay [2] (agonist: LPS (TLR4) 0.1 ug/mL). With `Nc1ccncc1` (library stock concentration (final ~1000-fold dilution): 10 mM), the “IRF Lucia reporter activity” value in assay [2] (setting [4]) came to 1.04; in assay [2] (agonist: LPS (TLR4) 0.1 ug/mL), 1.25. With `Nc1ccncc1`, in assay [1], the “IRF Lucia reporter activity” value amounted to 1.05. As for `CC12CCC3C(CCC4CC(O)CCC43C)C1CCC2=O` (centres undefined) (library stock concentration (final ~1000-fold dilution): 10 mM), the “IRF Lucia reporter activity” value was 0.851 in assay [2] (setting [4]) and 1.04 in assay [2] (agonist: LPS (TLR4) 0.1 ug/mL).
